# Test results: publication PMC4336329 (PLoS ONE, 2015)
# Among all 310,000 compounds or so, about 14,000 (4.5%) showed an effect of 50% or more. The effect is printed as a negative number. This is one part of the list.
# Molecular target: human ether-à-go-go-related gene (hERG) potassium channel (human, UniProt Q12809)
# Test: primary screen, population patch clamp on CHO cells stably expressing hERG
# 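Note: peak tail current of the secondary pulse compared with the same well before compound.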
# Chain of human ether-à-go-go-related gene (hERG) potassium channel (Q12809 whole entry, looked up): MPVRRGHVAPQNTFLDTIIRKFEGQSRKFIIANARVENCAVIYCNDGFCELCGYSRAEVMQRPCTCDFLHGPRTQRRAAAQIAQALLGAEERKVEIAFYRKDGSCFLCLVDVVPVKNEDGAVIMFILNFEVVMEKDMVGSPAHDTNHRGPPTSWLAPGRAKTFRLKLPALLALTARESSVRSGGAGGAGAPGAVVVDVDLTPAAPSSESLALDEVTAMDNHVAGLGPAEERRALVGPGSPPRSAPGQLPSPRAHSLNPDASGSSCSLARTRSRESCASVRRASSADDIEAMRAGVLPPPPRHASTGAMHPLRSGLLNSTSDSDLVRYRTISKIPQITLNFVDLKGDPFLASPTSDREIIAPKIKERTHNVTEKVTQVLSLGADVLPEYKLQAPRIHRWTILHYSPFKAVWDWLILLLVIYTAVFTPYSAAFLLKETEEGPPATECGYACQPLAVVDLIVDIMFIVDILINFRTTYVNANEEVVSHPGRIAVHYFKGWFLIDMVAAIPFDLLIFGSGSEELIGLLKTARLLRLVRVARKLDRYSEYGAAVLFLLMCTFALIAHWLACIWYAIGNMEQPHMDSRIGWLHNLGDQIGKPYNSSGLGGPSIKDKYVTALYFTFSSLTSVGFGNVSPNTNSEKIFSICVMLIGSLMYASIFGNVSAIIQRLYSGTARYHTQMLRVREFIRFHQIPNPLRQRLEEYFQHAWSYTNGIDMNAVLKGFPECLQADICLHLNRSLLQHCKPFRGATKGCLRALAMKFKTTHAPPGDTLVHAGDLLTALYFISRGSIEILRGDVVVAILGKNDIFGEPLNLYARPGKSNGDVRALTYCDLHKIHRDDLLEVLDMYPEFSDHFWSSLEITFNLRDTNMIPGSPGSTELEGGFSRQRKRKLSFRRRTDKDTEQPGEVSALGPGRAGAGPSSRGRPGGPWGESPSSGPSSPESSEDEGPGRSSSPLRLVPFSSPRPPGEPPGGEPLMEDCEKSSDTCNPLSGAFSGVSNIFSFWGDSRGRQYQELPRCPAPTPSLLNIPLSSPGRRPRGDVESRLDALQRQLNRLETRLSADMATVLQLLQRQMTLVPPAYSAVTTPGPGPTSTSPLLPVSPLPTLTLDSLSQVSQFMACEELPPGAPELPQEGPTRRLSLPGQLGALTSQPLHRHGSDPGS
row,SMILES,"hERG current change (%, negative = inhibition) at 10uM [%]"
1,COc1ccc(C/C(C)=N/Nc2nc(C)cc(=O)[nH]2)cc1,20.5
2,O=C(N/N=C\c1ccc(Oc2ccccc2)cc1)c1csnn1,-11.7
3,CCOC(=O)c1[nH]c(C)c(C(=O)N(C)C)c1C,4.87
4,N#CC1=C(N)Oc2cc3ccccc3cc2C1c1cccnc1 (stereo not drawn),18
5,O=C(NC(=S)Nc1ccccc1N1CCCCC1)c1ccccc1,22.5
6,CC(=O)c1c(C)[nH]c(C(=O)OCC(=O)N2CCc3ccccc32)c1C,3.9
7,Cc1ccc(NC(=S)N(C)C)cc1C,-4.6
8,CC(=O)c1cccc(NCC(=O)Nc2cc(S(=O)(=O)N3CCCCC3)ccc2C)c1,-5.8
9,O=C(O)C1CCN(C(=O)OCc2ccccc2)CC1,13.8
10,COc1cccc(CNC(=O)C2CCN(S(=O)(=O)N3CCC(C)CC3)CC2)c1,-3.44
11,Cc1ccc(C(=O)NCC(C)(C)O)cc1,11.7
12,N#Cc1ccc(C23CC4(C2)[C@H](CN(Cc2cccnc2)[C@@H]4c2ccccc2)C3c2ccccc2)cc1 (stereo partly drawn),1.18
13,C=CCn1c(SCC(N)=O)nc2nc3c(cc2c1=O)COC(C)(C)C3,4.77
14,CCOC(=O)c1c(C)[nH]c(C(=O)COC(=O)c2cnccn2)c1C,-1.87
15,Cc1ccc(N2C(=O)CC(Cc3cccc(C)c3)C2=O)cc1 (stereo not drawn),9.39
16,Cn1c(O)c(C=NCCN2CCNCC2)c(=O)[nH]c1=O,13.6
17,CCc1ccc(S(=O)(=O)NCCc2csc(C)n2)s1,15.5
18,O=C(NC1C2CC3CC(C2)CC1C3)C1CC1 (stereo not drawn),0.685
19,CSc1ccc(/C=C(/NC(=O)c2ccco2)C(=O)NCc2ccco2)cc1,10.3
20,COc1cccc(/C=C2\SC(=S)N(CCC(=O)N3CCCCC3CCO)C2=O)c1 (stereo not drawn),15.4
21,O=C1NC(NS(=O)(=O)c2ccccc2)(C(F)(F)F)C(=O)N1CCc1ccccc1 (stereo not drawn),21.1
22,CC(=O)c1c(C)nc2ccc([N+](=O)[O-])cc2c1-c1ccccc1,-11.6
23,COc1ccc(CN2C(=O)C(O)(CC(=O)c3c(C)n[nH]c3C)c3ccccc32)cc1OC (stereo not drawn),20

row,SMILES,"hERG current change (%, negative = inhibition) at 10uM [%]"
1,COc1cccc2sc(N(CCCN(C)C)C(=O)c3ccc(S(=O)(=O)N4CCCc5ccccc54)cc3)nc12.Cl,-68.3
2,Cn1c(=O)cc(C(=O)N/N=C/c2ccc(Cl)cc2)[nH]c1=O,-28.5
3,CC1=NN(C(N)=S)C(=O)C1N=Nc1cccc(C(=O)O)c1 (stereo not drawn),19.6
4,COc1ccc(N2C(=O)C3CCCN3C2c2ccc(C)cc2)cc1Cl (stereo not drawn),8.8
5,COC(=O)c1ccccc1NC(=O)CSc1nc(O)c(-c2ccccc2)c(=O)[nH]1,-9.79
6,COc1cccc2cc(-c3nc4ccccc4o3)c(=O)oc12,11.1
7,CCCCCCCC1(C)NC(=O)N(CC(=O)Nc2cc(C)on2)C1=O (stereo not drawn),-19
8,O=C(Cn1nnc2ccccc21)c1cccc([N+](=O)[O-])c1,8.85
9,CCN(CC(=O)Nc1cc(S(=O)(=O)N2CCOCC2)ccc1Cl)Cc1ccccc1,-3.4
10,CC(C)OCCCNCC(O)c1ccccc1 (stereo not drawn),1.04
11,CN(NC(=O)c1ccc(Cl)cc1)c1ncc(C(F)(F)F)cc1Cl,7.71
12,O=C(/C=C/c1ccccc1)NNC(=O)c1ccco1,4.03
13,O=C1c2ccccc2C(=O)N1Cc1cccnc1,17.1
14,Cc1nnc(SCC(=O)Nc2nsc(-c3ccc(Cl)cc3)n2)s1,0.522
15,Cc1c(C(=O)N2c3ccccc3Sc3ccccc32)cccc1[N+](=O)[O-],4.13
16,O=C(NCCCN1CCOCC1)c1ccc(S(=O)(=O)Nc2ccccc2F)cc1,11.7
17,Cc1[nH]c2ccccc2c1-c1csc(N)n1,17.8
18,CCSc1nc2ccccc2n1C(=O)Oc1ccccc1,-0.933
19,COc1ccc(-c2cc(C)no2)cc1S(=O)(=O)Nc1cccc(CN2CCCC2)c1,-13.8
20,Brc1cccc(OCCCCN2CCCCC2)c1.O=C(O)C(=O)O,-68.9
21,COc1ccc(NC(=S)NN(C)C(=S)Nc2ccc(OC)cc2)cc1,26.1
22,COc1ccc(CNC(=O)c2cc3c(=O)[nH]c4ccccc4c3n2C)cc1,1.45
23,CSCC[C@H](NC(=O)Nc1ccc(C)cc1)C(=O)O,13.7

row,SMILES,"hERG current change (%, negative = inhibition) at 10uM [%]"
1,COc1ccccc1-c1cc(C(=O)Nc2cc(C)nn2-c2ccccc2)no1,17
2,Cc1cc(C)c(S(=O)(=O)Nc2cc(SCC(=O)O)c(O)c3ccccc23)cc1C,-0.947
3,CNC(=O)CNC(=O)Nc1ccc(Cl)c(Cl)c1,9.11
4,COc1cc2oc3cc(C#Cc4ccc(N)cc4)ccc3c(=O)c2cc1OC,13
5,COC(=O)c1sccc1NC(=O)c1c(F)c(F)c(F)c(F)c1F,27
6,Cc1ccc(C(=O)NNC(=O)c2ccco2)cc1,2.25
7,O=C(Cc1ccccc1)NNC1CC(=O)N(c2ccc(Cl)cc2)C1=O (stereo not drawn),5.98
8,O=S(=O)(c1cnc[nH]1)N1CCCCCC1,11.5
9,CC/C=C(\NC(C)=O)c1ccccc1,8.17
10,O=C(CSc1nnc2c3c4c(sc3ncn12)CCCC4)NCc1ccco1,11.4
11,COc1ccc(S(=O)(=O)N2CCOCC2)cc1NC(=O)c1ccccc1C,-0.0605
12,CSc1cccc(NC(=S)N2CCCN(Cc3ccc(F)cc3)C2)c1,-43.6
13,Cc1ccc(C(NC(=O)c2cccc(S(=O)(=O)N3CCN(C)CC3)c2)c2ccccc2)cc1 (stereo not drawn),-61.8
14,COc1ccc(Cc2nnc(NC(=O)C3CCCO3)s2)cc1OC (stereo not drawn),6.23
15,COc1cc2c(cc1NC(=O)C(C)Sc1ccc(C)cc1)oc1ccccc12 (stereo not drawn),5.87
16,CN(CC(=O)NCCc1ccc(S(N)(=O)=O)cc1)S(=O)(=O)c1cccc2nsnc12,5.3
17,Cc1ccc(C(=O)OCC(=O)NC2CCCc3ccccc32)o1 (stereo not drawn),9.86
18,COc1ccc(NC(=O)Cc2ccc(C)cc2)cc1S(=O)(=O)N1CCCCC1,-14.5
19,Cc1ccc(C(C(=O)NCc2ccccc2)N(Cc2ccco2)C(=O)c2snc(C(N)=O)c2N)o1 (stereo not drawn),9.09
20,CCCCN1C(=O)NC(c2ccc(OC)cc2)C(C(=O)OCc2ccccc2)=C1C (stereo not drawn),-0.628
21,CC(C)(C)C(=O)Nc1ccc(C(=O)NCc2cccnc2)cc1,-11.3
22,Cc1ccc2nc(SCC(=O)Nc3ccc4c(c3)CCC4)[nH]c2c1,8.84
23,Cc1ccc(S(=O)(=O)c2nc(S(=O)(=O)c3ccc(C)cc3)c(NCc3ccco3)s2)cc1,12.9

row,SMILES,"hERG current change (%, negative = inhibition) at 10uM [%]"
1,NS(=O)(=O)c1ccc(CNC(=O)/C=C/c2ccco2)cc1,-1.83
2,CCc1ccc2c(c1)cc(CN(C(=S)Nc1ccccc1C)C1CC1)c1nnnn12,-3.98
3,COc1ccc(OC)c(C(=O)COC(=O)c2ccccc2O)c1,1.19
4,COCCNC(=O)c1cnn2c(C(F)F)cc(-c3ccc(C)cc3)nc12,-21.3
5,O=C(/C=C/c1ccco1)Nc1nc(-c2ccccn2)cs1,5.46
6,CCN(C(=O)Cn1c(=O)oc2ccccc21)c1c(N)n(Cc2ccccc2)c(=O)[nH]c1=O,6.64
7,Cc1cccc(C(=O)NCC2CCN(C(=O)c3cccc(C)c3)CC2)c1,-51.2
8,CN(C(=O)COC(=O)c1cccnc1Nc1ccccc1F)C1CCS(=O)(=O)C1 (stereo not drawn),-29
9,COc1ccc(CN2CCN(C(=O)CC(C)C)CC2)c2ccccc12,-6.55
10,O=C(CN1CCN(C(c2ccccc2)c2ccccc2)CC1)N1CCOCC1.O=C(O)C(=O)O,-22.3
11,CCCCc1ccc(-c2c(C#N)c(N)nc3c2CCCC3)s1,3.9
12,CCc1noc(C)c1C(=O)N1CCN(S(=O)(=O)c2ccc(Cl)s2)CC1,-13.5
13,CC(C)c1ccc(C(=O)NC2=NCCS2)cc1,-2.13
14,O=C(COc1cccc2cccnc12)N1CCc2ccccc21,-5.77
15,COc1ccc(CC(=O)NNC(=O)CSc2nc(C)c(C)c(=O)[nH]2)cc1,13.7
16,Cl.O=[N+]([O-])c1ccc2ncnc(N3CCN(Cc4ccc5c(c4)OCO5)CC3)c2c1,-24.6
17,CC1CCCC(C)N1NC(=O)Cc1ccccc1 (stereo not drawn),8.75
18,COC(=O)C(C)Oc1ccc(Cc2ncc(C(F)(F)F)cc2Cl)cc1 (stereo not drawn),7.4
19,O=C(Cc1cc(=O)[nH]c(=O)[nH]1)N1CCC(Cc2ccccc2)CC1,4.05
20,O=C(CC(C(=O)NCc1ccccc1)c1nc2ccccc2c(=O)[nH]1)NCc1ccccc1 (stereo not drawn),-0.509
21,O=C(c1ccc2ccccc2c1)N1CCN(c2ccccc2)CC1,-16.4
